Measurements from the supplement of paper PMC3334620.
The full ranking holds about 33,000 sequences; the median of “E-score (-0.5 to 0.5)” is about -0.012, and the highest 2% start at about 0.29. The list shows a part of the results.

What follows are sequences tested against T1, Ybr033w (UniProt P38073) (assay: PBM E-score (8-mer binding enrichment) (E-score (-0.5 to 0.5)); higher = stronger / more preferred TF binding; most listed sequences are background and not binding sites). Conditions: protein concentration: 200 nM; construct: GST-full length.
T1 sequence: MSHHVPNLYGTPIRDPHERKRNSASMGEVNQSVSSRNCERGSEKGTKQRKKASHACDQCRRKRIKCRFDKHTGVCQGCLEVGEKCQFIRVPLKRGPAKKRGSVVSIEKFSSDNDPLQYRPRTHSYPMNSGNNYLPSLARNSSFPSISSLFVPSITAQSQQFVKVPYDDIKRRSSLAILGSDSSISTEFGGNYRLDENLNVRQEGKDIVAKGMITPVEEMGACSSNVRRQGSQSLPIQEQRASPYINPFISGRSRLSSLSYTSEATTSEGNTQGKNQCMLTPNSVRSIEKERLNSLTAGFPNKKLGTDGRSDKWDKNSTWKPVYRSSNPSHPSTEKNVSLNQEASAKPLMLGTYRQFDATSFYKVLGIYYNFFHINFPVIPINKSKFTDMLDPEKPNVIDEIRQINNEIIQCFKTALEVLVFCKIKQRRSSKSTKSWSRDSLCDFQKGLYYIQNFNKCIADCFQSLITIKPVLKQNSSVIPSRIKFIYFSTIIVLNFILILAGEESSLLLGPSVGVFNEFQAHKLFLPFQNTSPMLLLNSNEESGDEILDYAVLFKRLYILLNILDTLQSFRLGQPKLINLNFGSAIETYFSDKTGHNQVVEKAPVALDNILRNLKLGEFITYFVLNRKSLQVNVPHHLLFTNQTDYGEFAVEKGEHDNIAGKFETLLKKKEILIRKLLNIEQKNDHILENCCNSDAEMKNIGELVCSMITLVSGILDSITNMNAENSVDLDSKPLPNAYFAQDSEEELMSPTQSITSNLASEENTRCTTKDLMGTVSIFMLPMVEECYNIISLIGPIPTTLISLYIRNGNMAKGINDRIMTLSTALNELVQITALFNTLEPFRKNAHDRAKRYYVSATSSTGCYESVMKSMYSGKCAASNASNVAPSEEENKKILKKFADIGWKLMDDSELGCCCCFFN
Method in brief: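 GST-tagged yeast TFs (full-length or DNA-binding domain) were made by PURExpress in vitro transcription/translation and applied at about 100-200 nM to universal all-10-mer Agilent arrays. The arrays were made double-stranded by primer extension, on fresh or once-stripped slides. Bound protein was detected with fluorescent anti-GST, and scans were normalised with masliner. Each ungapped eight-base word, pooled with its reverse complement, received an E-score (modified Wilcoxon-Mann-Whitney statistic) from the Universal PBM Analysis Suite.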

| Sequence | PBM E-score |
| --- | --- |
| ACGGCCAA | 0.082 |
| AGCAACTC | 0.0484 |
| CGTCTCGC | -0.158 |
| TCATAACA | 0.23 |
| CCTTACGA | -0.256 |
| ATCTCTAA | 0.102 |
| AGAACCCG | -0.157 |
| TAAAATTA | 0.288 |
| CACATAGA | -0.00674 |
| CACTCTCA | -0.123 |
| GAAATTAA | 0.294 |
| GGCGTGGA | -0.271 |
| ACAGATCA | 0.107 |
| ATACACGA | 0.0457 |
| AAGGTCCT | -0.196 |
| AGACAGGC | -0.107 |
| CATACATA | 0.251 |
| AATCGAGT | -0.0355 |
| CGATACCC | -0.272 |
| AATAACGA | 0.174 |
| AGTGTTCG | 0.0756 |
| AATTGAAT | 0.217 |
| CCACCACC | -0.0273 |
| ATCCGCGG | 0.096 |
| CGTGCACG | -0.186 |

| Sequence | PBM E-score |
| --- | --- |
| GTGACCCA | -0.14 |
| CTACCACC | -0.252 |
| ATAATAGA | 0.223 |
| GATGTTTA | 0.14 |
| CGACCACC | -0.216 |
| ACTGGTCG | -0.237 |
| GACAGCAA | 0.0664 |
| CGGTAAAG | 0.0303 |
| GATCGCAC | -0.0367 |
| ACTCAAGC | 0.00745 |
| ACGATCTA | -0.0695 |
| CTGGACCC | -0.366 |
| CCCTGATA | -0.0965 |
| GAAGAGTC | -0.0956 |
| ACGGATGG | 0.0259 |
| CATTGCCC | -0.242 |
| ATGTTAAA | 0.289 |
| AGTAATCC | 0.155 |
| AGGGCGAG | -0.241 |
| GCCTCATA | -0.134 |
| ACGAGGGC | -0.188 |
| ACCTCTTA | 0.0989 |
| AAAGGCTC | -0.114 |
| TCTCACAA | 0.14 |
| CTGATTCA | 0.131 |

| Sequence | PBM E-score |
| --- | --- |
| GACTATCA | 0.0235 |
| ATCAAAAC | 0.129 |
| CGTCGATA | -0.0588 |
| CAGTTGGA | 0.0551 |
| ATCAGACC | -0.0685 |
| GGAAGTCC | -0.0957 |
| GATGTAGC | -0.16 |
| AATGAGCT | 0.11 |
| ATCGCAAC | 0.097 |
| AATATGCA | 0.0723 |
| GATCTCCA | -0.0356 |
| ACTCTTAG | -0.0847 |
| GAACCAAC | 0.145 |
| GATATCGA | 0.151 |
| ATCCGCCA | 0.0644 |
| ACGTTCAT | -0.0796 |
| GGGCCAGA | -0.312 |
| GACACCCA | -0.057 |
| AAGAATCT | 0.0556 |
| GGCTTCCC | -0.281 |
| AGGTCGAT | 0.0545 |
| GATACGAC | 0.0451 |
| AGTGATAC | 0.0374 |
| ATGTCTAA | 0.182 |
| GAACAGGA | -0.0725 |

| Sequence | PBM E-score |
| --- | --- |
| CAAGTTGC | 0.0158 |
| CCTCCACA | -0.0953 |
| GTGCCTTA | -0.104 |
| GTTTAACA | 0.0135 |
| AGTACCTC | -0.201 |
| ACGTTAGA | -0.105 |
| CAGACGAC | -0.228 |
| CAAACGCC | -0.0492 |
| AAGTCACA | 0.0641 |
| GGTTCCCA | -0.186 |
| GGAATGAC | -0.16 |
| CGCCGTTA | -0.00897 |
| AAATCAGT | -0.00051 |
| ATTGGAGC | 0.0711 |
| ATAACCAC | 0.0831 |
| GTCACGAC | -0.168 |
| CCCAACAG | -0.0625 |
| ACCGACTA | -0.283 |
| AGCTGCAA | -0.16 |
| GGGTGGAC | -0.179 |
| GACCCCGA | -0.257 |
| CGATTTGA | -0.0188 |
| GAACTCCC | -0.0347 |
| ACTTTATC | 0.277 |
| GGAGCTTA | -0.132 |

| Sequence | PBM E-score |
| --- | --- |
| GGGCCTCA | -0.254 |
| CCGAGCGA | -0.0301 |
| CAAATGCC | 0.00737 |
| AAGACCCG | -0.0814 |
| AATAGGCT | 0.0809 |
| GGGATAAC | 0.00039 |
| CTAATTGC | 0.106 |
| CAGCGCCC | -0.124 |
| GGGTCTCA | -0.282 |
| GTCGGCAA | -0.158 |
| CCTGTTGC | -0.0897 |
| AAGCCTCA | -0.0877 |
| TCTCCTAA | 0.0912 |
| AACAGCGC | -0.0583 |
| ACAACTAG | -0.0539 |
| GGTTCCAA | 0.124 |
| ACGTAAAC | -0.171 |
| TACTTCGA | 0.188 |
| AAACCGTC | 0.0244 |
| AATGCTAT | 0.164 |
| GGGCTAGA | -0.109 |
| ACTCCTCC | -0.182 |
| AGGCATGA | -0.148 |
| TCGAAAAA | 0.27 |
| GATGATTA | 0.0403 |

| Sequence | PBM E-score |
| --- | --- |
| CGTCCGCA | -0.242 |
| ACGTTTCC | -0.0963 |
| CGCTCCAA | -0.171 |
| CGGAGTTA | -0.127 |
| GTTCTAAA | 0.0663 |
| AACACTTG | 0.0758 |
| GCCTACAA | -0.0334 |
| CCCCGAGA | -0.228 |
| TCGAGGAA | -0.00644 |
| ACTGCACG | -0.0718 |
| CGCTCGTC | -0.0709 |
| AATGAGCC | -0.159 |
| AAATGTCT | 0.172 |
| GTCAATCA | 0.108 |
| CCAAGATC | -0.012 |
| ATCTTCCC | 0.121 |
| AACCGATG | 0.0128 |
| CGCGTCCG | -0.114 |
| ACGATGAC | -0.106 |
| GCCCGACA | 0.0799 |
| AACGGTGG | -0.0934 |
| CATAAGAG | 0.102 |
| AGAAGCTC | -0.0933 |
| GGAGTGCC | -0.165 |
| CATGCAGC | -0.173 |

| Sequence | PBM E-score |
| --- | --- |
| AGAGAGGG | -0.233 |
| AAAGCTGC | -0.0518 |
| ATGCCTCG | -0.0626 |
| ACCGGGCA | -0.21 |
| CCATATAG | 0.0422 |
| TAGGTGGA | 0.103 |
| GGATCATA | 0.123 |
| AAATATAC | 0.312 |
| GTTCTCCA | 0.0715 |
| AACTAGTT | -0.0643 |
| CGTATGGA | 0.204 |
| CGACCAAA | 0.0922 |
| GGCTAACA | 0.0488 |
| ACTCGTAC | 0.0956 |
| ATTAACTA | 0.181 |
| CCAACTGG | -0.0443 |
| ATACCGAC | -0.155 |
| ATTAATGG | 0.289 |
| ATATACCA | 0.0894 |
| GCTGAGTA | -0.0944 |
| CTAAAAGA | 0.0548 |
| GCTTATCA | -0.0763 |
